Source: PubChem BioAssay AID686979 (National Center for Advancing Translational Sciences (NCATS), 2013)
Out of some 420,000 compounds screened, about 50,000 (12%) were called active. The inconclusive results got no clear call from the source; some entries with a clear call stand among them for comparison. Calls come from the whole dose curve; as a rule, active = well fitted inhibition curve with a large enough effect; inconclusive = small, poorly fitted or top-dose-only effect; inactive = flat fitted curve, though single readings scatter. No potency is given beside an inconclusive call; the fits are too rough.
% is set by controls: 0 for no effect and ±100 for the full control effect; potency is the fitted concentration of half-maximal effect; tags give direction and shape of the fitted curve.

Test: qHTS for Inhibitors of human tyrosyl-DNA phosphodiesterase 1 (TDP1): qHTS in cells in presence of CPT; note: nearly all actives have a fitted effect of over 55% in size
Conditions: chicken DT40 Tdp1-/-;hTDP1 cells + 20 nM CPT, ATP luminescence, 48 h; activity change, negative = growth inhibition: at 46.2 µM (top of the series) unless noted
Summary of the method: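 Chicken DT40 Tdp1-/- cells complemented with human TDP1, 400 cells/well, exposed to compounds plus 20 nM camptothecin for at least 48 h at 37 C; viability read as ATP content by CellTiter-Glo luminescence.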
For `Nc1nc(=O)n([C@@H]2CS[C@H](CO)O2)cc1F`, the activity change, negative = growth inhibition was inconclusive: -43% [inhibitor].
In the case of `O=C(CN1CCN(S(=O)(=O)c2ccc(Br)cc2)CC1)N/N=C/c1cc([N+](=O)[O-])ccc1Cl`, the Potency is reported as inconclusive [inhibitor, single point].
For `C/C(=N\NC(=S)Nc1cc(S(=O)(=O)N2CCOCC2)ccc1Cl)c1ccc(N2CCOCC2)cc1`, the Potency was active: 2.91 µM.
For `CC(=O)Nc1ccc(CN2C(=O)C(C)(C)ON=C2c2ccc(C(F)(F)F)cc2)cc1`, the “activity change, negative = growth inhibition” value was inactive: -0.7%.
In the case of `COc1ccccc1N1CCN(C2CCN(C(=O)c3ccc(F)cc3)CC2)CC1`, the “activity change, negative = growth inhibition” value is reported as inactive: -16.5%.
In the case of `O=C1NCCN(Cc2cccc(Oc3ccccc3)c2)C1CC(=O)N1CCCCO1` (configuration not stated), the Potency is reported as inconclusive [inhibitor, single point].
In the case of `Cc1[nH]c2ccccc2c1/C=N/Nc1ccccc1[N+](=O)[O-]`, the “activity change, negative = growth inhibition” value is reported as inactive: -11.6%.
With `CCN1CCOC(=O)C1CC(=O)Nc1cc(Cl)ccc1C` (configuration not stated) the Potency was active: 7.31 µM.
With `CC1(C(=O)Nc2ccc(Cl)c(Cl)c2)CCN1C(=O)C1CCCCC1` (configuration not stated) the Potency was inconclusive [inhibitor, single point].
With `CCOC(=O)c1cnn(-c2cc(Oc3ccccc3C)ncn2)c1N` the Potency was inconclusive [inhibitor, single point].
In the case of `COc1ccc(OS(=O)(=O)c2c(C)noc2C)cc1`, the “activity change, negative = growth inhibition” value is reported as inactive: -15.6%.
In the case of `O=C(CO/N=C/c1cccc([N+](=O)[O-])c1)NC1CCCCCC1`, the Potency is reported as inconclusive [inhibitor, single point].
With `COc1ccc(NS(=O)(=O)c2ccc(C)c(NC(=O)c3ccc(C)c(S(=O)(=O)N4CCOCC4)c3)c2)cc1` the Potency was inconclusive [inhibitor, single point].
For `CC1=Nc2cc(C(=O)NC3CCCC3)ccc2Sc2ccc(Cl)cc21`, the Potency was active: 0.82 µM.
In the case of `Cc1onc(-c2ccccc2)c1-c1nc2cc(Cl)ccc2c(=O)o1`, the Potency is reported as inconclusive [inhibitor, partial curve].
For `COc1ccc2ccccc2c1CNCc1ccc(C)cc1`, the Potency was inconclusive [inhibitor, single point].
With `CCOC(=O)c1cccc(NC(=O)CC2C(=O)N(c3ccc(F)cc3)C(=O)N2Cc2cccc(OC)c2)c1` (configuration not stated) the Potency was inconclusive [inhibitor, single point].
With `COc1ccc(CNC(=O)CC2C[C@H](C(=O)N3CCCCC3)[C@@]3(C)c4[nH]c5ccccc5c4CCN3C2=O)cc1OC` (some centres not stated) the Potency was inconclusive [inhibitor, single point].
For `CC(C)(C)c1ccc(OCC(=O)Nc2ccc(-c3nc4cccnc4o3)cc2)cc1`, the Potency was inconclusive [inhibitor, single point].
For `CCOc1ccc(-c2noc(CSc3nnc(Cc4ccccc4)n3-c3ccc(F)cc3)n2)cc1`, the Potency was inconclusive [inhibitor, single point].
In the case of `C=C1C(=O)O[C@H]2C1CC[C@@](C)(O)C13C=CC(C)(C21)C1(C3)C(=O)O[C@@H]2C3C(C)=CCC3[C@](C)(O)C[C@H](OC(C)=O)C21` (some centres not stated), the Potency is reported as inconclusive [inhibitor, single point].
With `CCc1ccc(-c2cc(C)no2)cc1S(=O)(=O)N1CCN(c2cccc(C)c2C)CC1` the Potency was active: 23.1 µM.
For `N#Cc1ccsc1NC(=O)CN1CCN(S(=O)(=O)c2cc(Cl)ccc2Cl)CC1`, the Potency was inconclusive [inhibitor, partial curve, poor fit].
With `CC(C)c1nnc(NC(=O)CCC(=O)NCc2ccc(F)cc2)s1` the Potency was inconclusive [inhibitor, full curve, poor fit].
In the case of `CC(C)CN(CC(C)C)S(=O)(=O)c1ccc(C(=O)Nc2sc3c(c2C(N)=O)CCN(C(C)C)C3)cc1`, the Potency is reported as active: 8.2 µM.
In the case of `COc1ccc(N(C)S(=O)(=O)c2ccc3c(c2)n(C)c(=O)c(=O)n3C)cc1`, the “activity change, negative = growth inhibition” value is reported as inactive: -4.69%.
In the case of `COc1ccc(/C=C/C=C2\N=C(SC)SC2=O)cc1`, the Potency is reported as active: 23.1 µM.
In the case of `CCOCCc1nn2c(=O)cc(COC(=O)c3ccccc3NC(=O)CC(C)C)nc2s1`, the Potency is reported as inconclusive [inhibitor, single point].
With `Cc1cc(C)c(S(=O)(=O)c2ccccc2C)c(Cl)n1` the Potency was inconclusive [inhibitor, partial curve].
With `Cc1ccc(CCN2CC(C(=O)NCCCN3CCC(C)CC3)CC2=O)cc1` (configuration not stated) the Potency was inconclusive [inhibitor, single point].
With `COc1cc(CNc2cc(C)ccc2C)cc(OC)c1OC` the Potency was inconclusive [inhibitor, single point].
With `O=C(C1CCN(C2CCN(CC3CC=CCC3)CC2)CC1)N1CCOCC1` (configuration not stated) the “activity change, negative = growth inhibition” value was inactive: -0.567%.
With `CC(C)Nc1oc(Cc2cccc3ccccc23)nc1C#N` the Potency was inconclusive [inhibitor, single point].
For `Cc1cccc(N2CCN(S(=O)(=O)c3cccs3)CC2)c1C`, the “activity change, negative = growth inhibition” value was inactive: -0.305%.
For `Cc1cc(Cl)n2ncc(-c3ccccc3)c2n1`, the Potency was inconclusive [inhibitor, single point].
In the case of `C=CCN1CCC(=O)C(C(=O)OCC)=C1C(=O)OCC`, the “activity change, negative = growth inhibition” value is reported as inactive: -3.15%.
In the case of `CCOC(=O)c1cc(C)sc1NC(=O)CN1CCN(C(=O)C2CCCO2)CC1` (configuration not stated), the Potency is reported as inconclusive [inhibitor, single point].
With `COc1cccc(C(=O)Nc2c3c(nn2-c2ccc(C)cc2C)CS(=O)(=O)C3)c1OC` the Potency was inconclusive [inhibitor, single point].
For `COC(=O)c1scc(-c2ccc(C)cc2)c1S(=O)(=O)N1CCN(c2ccccc2F)CC1`, the Potency was active: 13 µM.
In the case of `O=C1/C(=C\c2ccc3c(c2)OCO3)CCC/C1=C/c1ccc2c(c1)OCO2`, the Potency is reported as inconclusive [inhibitor, single point].
With `CC1C(=O)N(Cc2cn(CCC3OCCO3)nn2)CCS(=O)(=O)N1Cc1ccc(-c2ccc(F)cc2)cc1` (configuration not stated) the Potency was inconclusive [inhibitor, single point].
In the case of `Cc1cccc(N2CCN(c3ncnc4c3cnn4-c3ccc(Cl)cc3)CC2C)c1` (configuration not stated), the Potency is reported as inconclusive [inhibitor, full curve].
